Several values for one entry are separate records, joined by “and”; a condition that tells them apart may be missing. Identical values can stand only once. The whole screen tested about 420,000 compounds, of which about 75 (0.02%) were called active. Calls follow the shape of the dose curve; as a rule, active = well fitted activation curve with a large enough effect; inconclusive = small, poorly fitted or top-dose-only effect; inactive = no such curve, though single readings can be large or run the other way. Only a part is listed here, and it is no random draw. Some structures have more than one record in an assay (separate samples or runs), and their calls can disagree.
Experiment: qHTS for Inducers of the Endoplasmic Reticulum Stress Response (ERSR) in Human Glioma: qHTS; also: nearly all actives have a fitted effect of over 35% in size; as to activation: % of control where 0% means no effect
Conditions: U87-MG GRP78 promoter luciferase reporter, 16 h; activation: hits give high values
How it was run: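 ERSR induction read as luciferase luminescence (Bright-Glo, 10 min at room temperature) in stably transfected human U87-MG glioma cells exposed to compounds for 16 h, using GRP78 as sensor.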
Potency is read from the fitted curve at half-maximal effect.

Q: With `COc1ccc(CS(=O)(=O)/C(Cl)=C(/Cl)C(=O)Nc2ccc(OC)nc2)cc1` as the compound, how does the activation read?
A: Its activation is inactive: -16.6%.

Q: Which activation does the source give for `N#CC1=C(N)C(C#N)(C#N)C(c2cccnc2)C2CN(C(=O)OCc3ccccc3)CC=C12` (configuration not stated) here?
A: The activation was inactive: -18.2%.

Q: For `COc1ccc(NC2C[C@H]3CCCC(=O)N4CC[C@@H](C2)[C@@H]34)cc1` (some centres not stated), which Potency is on record?
A: Its Potency is active: 50.1 µM.

Q: Which activation does the source give for `O=C(Nc1nc2c(s1)C(=O)CCC2)c1ccccc1` here?
A: Its activation is inactive: -13.2%.

Q: Which activation does the source give for `O=C(O)CCCC[C@@H]1CCSS1` here?
A: Its activation is inactive: -1.59% and inactive: 1.39%.

Q: With `CCOC(=O)C1CCN(C(=O)COc2ccc(Cl)cc2Cl)CC1` as the compound, how does the activation read?
A: The activation was inactive: -12.6%.

Q: For `COc1cc(OC)cc(C(=O)Nc2ccc3nc4n(c(=O)c3c2)CCCCC4)c1`, which activation is on record?
A: The activation was inactive: 0.288%.

Q: For `CC1CCN(c2ccc(-c3ccc(NC(=O)C(F)(F)F)cc3)nn2)CC1`, which activation is on record?
A: Its activation is inactive: -14.2%.

Q: For `O=C(O)c1cc([N+](=O)[O-])ccc1NCCCc1ccccc1`, which activation is on record?
A: The activation was inactive: -2.68% and inactive: 12.2% and inactive: 2.57%.

Q: With `O=C(O)CCn1cc(/C=C\C(=O)c2ccc(Cl)cc2)c(-c2cccc(Br)c2)n1` as the compound, how does the activation read?
A: Its activation is inactive: 5.47%.

Q: For `O=C(N/N=C/c1ccc2ncccc2c1)c1ccco1`, which activation is on record?
A: Its activation is inactive: -14.2%.

Q: Which activation does the source give for `O=C(C[C@H]1C/C=C\C[C@@H](NC(=O)OCC2c3ccccc3-c3ccccc32)C(=O)O[C@@H](c2ccccc2)CNC1=O)N[C@H](CO)Cc1ccccc1` here?
A: Its activation is inactive: -2.27%.

Q: With `Oc1ccc([C@@H]2CNCCc3c2cc(O)c(O)c3Cl)cc1` as the compound, how does the activation read?
A: Its activation is inactive: 2.11%.

Q: For `O=C(Cn1ncc(Cl)c(Cl)c1=O)N1CCN(Cc2ccccc2)CC1`, which activation is on record?
A: The activation was inactive: -14.7%.

Q: Which activation does the source give for `Cc1cc(C(=O)Nc2cccc(C(=O)O)c2)oc1C` here?
A: Its activation is inactive: -16.2%.

Q: Which activation does the source give for `Cn1c(SCC(=O)Nc2ccc(F)cc2)nc2c([nH]c3ccccc32)c1=O` here?
A: Its activation is inactive: -2.45%.

Q: For `CC(CNC(=O)c1cc(Cl)ccc1[N+](=O)[O-])NC(=O)c1cc(Cl)ccc1[N+](=O)[O-]` (configuration not stated), which activation is on record?
A: The activation was inactive: -18.2%.

Q: Which activation does the source give for `CCCC(=O)Nc1cnc(NC(=O)c2cccc(F)c2)cc1C` here?
A: The activation was inactive: -14.1%.

Q: Which activation does the source give for `C[C@H]1CN([C@@H](C)CO)S(=O)(=O)c2ccc(Br)cc2O[C@H]1CN(C)C(=O)c1cccc(F)c1` here?
A: The activation was inactive: -2.06%.

Q: For `C=CC[C@@H](CC(=O)OC(C)(C)C)C(=O)OC[C@H]1CCCN1C(=O)[C@@H](CC=C)CC(=O)N[C@H](CO)Cc1ccccc1`, which activation is on record?
A: The activation was inactive: -2.89%.

Q: Which activation does the source give for `NS(=O)(=O)C#Cc1ccccc1` here?
A: Its activation is inactive: -11.7% and inactive: -12.8%.

Q: With `O=C(Oc1ccccc1C(=O)Nc1ccccc1)c1ccc(Br)c([N+](=O)[O-])c1` as the compound, how does the Potency read?
A: Its Potency is active: 31.6 µM.

Q: Which activation does the source give for `O=C(NCc1ccccc1)c1nc(S(=O)(=O)Cc2ccccc2)ncc1Cl` here?
A: Its activation is inactive: -14.9%.

Q: Which activation does the source give for `CCSC1(SCC)N=C(N)C2(C#N)C(c3ccc(OC)c(OC)c3OC)C12C#N` (configuration not stated) here?
A: The activation was inactive: -16.6%.

Q: Which activation does the source give for `CCC(C)(C)NC(=O)C(c1cccn1C)N(Cc1ccc(OC)cc1)C(=O)Cn1nnc2ccccc21` (configuration not stated) here?
A: The activation was inactive: -17.8%.

Q: Which Potency does the source give for `COC(=O)COc1ccc2c(-c3ccc(OC)cc3)cc(=O)oc2c1` here?
A: Its Potency is active: 25.1 µM.

Q: With `Cc1ccccc1OCC(O)CNC1CCC(NCC(O)COc2ccccc2C)CC1` (configuration not stated) as the compound, how does the activation read?
A: Its activation is inactive: -14.5%.

Q: Which activation does the source give for `C=C1C(=O)OC2C1CC/C(C)=C/CCC1(C)OC21` (configuration not stated) here?
A: The activation was inactive: -11.5%.

Q: Which activation does the source give for `Oc1cc(O)cc(/C=C/c2ccc(O)c(O)c2)c1` here?
A: Its activation is inactive: 3.76% [middle of 5 runs].

Q: For `O=C(Nc1nccs1)c1sc2ccccc2c1Cl`, which activation is on record?
A: The activation was inactive: -13.2%.

Q: Which activation does the source give for `OCCN1CCN(C2Cc3cc(Cl)ccc3Sc3ccc(Cl)cc32)CC1` (configuration not stated) (tested in a mixture with another compound) here?
A: The activation was inactive: -18.6%.

Q: With `C=C1C(=O)OC2CC1C(OC(C)=O)CC(C)=CCCC(C)=CCC[C@@]2(C)O` (some centres not stated) as the compound, how does the activation read?
A: The activation was inactive: -12.3%.
